# Results reported in PubChem BioAssay AID624330 (Southern Research Specialized Biocontainment Screening …, 2012).
# The whole screen tested about 340,000 compounds, of which about 2,100 (0.62%) were called active. Inconclusive results, whose numbers are uncertain, are shown with a selection of clear calls.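 Rule for the calls: active = first-screen hits whose inhibition reached a set limit at any dose in the follow-up dose series; inconclusive = inhibition above the set first-screen limit but never retested; inactive = the rest.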
# Target: Rac GTPase-activating protein 1 (Homo sapiens) (UniProt Q9H0H5)
# Assay: blockers of MgcRacGAP-driven Rac1 GTP hydrolysis – biochemical, ADP Hunter fluorescence, primary and confirmatory, confirmation (AID 624330);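 note: fluorescence reports GDP produced by GAP-driven GTP hydrolysis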
# Details: MgcRacGAP-stimulated Rac1 GTP hydrolysis, at 30 µM, hits give high values, GST-tagged Rac1 F28L mutant substrate
# UniProt Q9H0H5, sequence (Q9H0H5 whole entry, looked up): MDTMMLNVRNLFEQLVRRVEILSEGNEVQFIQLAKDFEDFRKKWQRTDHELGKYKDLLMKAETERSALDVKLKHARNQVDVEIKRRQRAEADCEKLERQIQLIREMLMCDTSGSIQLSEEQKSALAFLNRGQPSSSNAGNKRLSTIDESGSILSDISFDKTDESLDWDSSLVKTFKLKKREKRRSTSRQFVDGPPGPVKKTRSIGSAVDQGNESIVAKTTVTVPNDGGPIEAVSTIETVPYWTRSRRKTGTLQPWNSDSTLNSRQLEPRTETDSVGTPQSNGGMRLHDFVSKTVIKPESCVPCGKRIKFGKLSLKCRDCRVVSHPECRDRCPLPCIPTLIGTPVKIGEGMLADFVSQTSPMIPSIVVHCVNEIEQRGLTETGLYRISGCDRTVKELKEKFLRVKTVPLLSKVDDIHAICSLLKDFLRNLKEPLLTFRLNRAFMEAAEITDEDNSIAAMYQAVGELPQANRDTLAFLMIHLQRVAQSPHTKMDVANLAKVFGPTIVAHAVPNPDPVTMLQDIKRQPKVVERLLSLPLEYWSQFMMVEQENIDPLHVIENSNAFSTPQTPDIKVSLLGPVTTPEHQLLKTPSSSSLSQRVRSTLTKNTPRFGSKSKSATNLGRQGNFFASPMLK
row,SMILES,inhibition
1,CCOC(=O)C(Sc1cc(C)nc(N)n1)C(C)=O (centres undefined),inactive: 0.9%
2,Oc1ccc(NC(=S)Nc2ccccc2)cc1,inconclusive: 59.7%
3,O=C(N/N=C/c1ccc(O)cc1)c1cc(C2CC2)[nH]n1,inconclusive: 79.5%
4,COc1ccc(/C=N/n2c(SC)nnc2-c2ccccc2)cc1C,inactive: 12.1%
5,CCOc1ccc(Oc2ccccc2NC(=O)C2=COCCO2)cc1,inactive: -5.82%
6,C1=CC2CC1CC2CN1CCN(Cc2ccccc2)CC1 (centres undefined),inconclusive: 32.1%
7,COc1ccc(-c2cc(=O)oc3c(O)c(O)ccc23)cc1,inconclusive: 74.6%
8,O=C(Sc1nnc(-c2ccccc2)o1)N1c2ccccc2Sc2ccccc21,inconclusive: 94.8%
9,O=c1ccc2cc(O)c(O)cc2o1,inconclusive: 54.4%
10,O=C(CN1C(=O)/C(=C/c2ccco2)SC1=S)Nc1ccc(O)c(C(=O)O)c1,inconclusive: 66%
11,COc1cccc(OC)c1OCCCCn1cnc2ccccc2c1=O,inconclusive: 32%
12,CC(C)C(CCNC1CCN(C)CC1)c1ccc(Cl)cc1 (centres undefined),inconclusive: 32.3%
13,CN1CCN(CC(=O)Nc2nc3ccccc3s2)CC1,inconclusive: 34.8%
14,Cc1cccc(C(=O)Oc2csc(=S)n2C(=O)c2cccc(C)c2)c1,inconclusive: 59.4%
15,CCOCCCNCc1cccc(OC)c1,inconclusive: 33%
16,CCOc1cc(/C=N/Nc2nn3cnnc3c3ccccc23)ccc1O,inconclusive: 35.9%
17,COCc1cc(C)nc(OCC(=O)N/N=C/c2ccc(C)cc2)c1C#N,inactive: 6.19%
18,COc1cc(OC)c(OC)cc1CN1CCCC(C(=O)N2CCCCC2)C1 (centres undefined),inconclusive: 33.9%
19,CC(C)CN1CCC(=O)N([C@H](CN=[N+]=[N-])Cc2ccccc2)CC1,inactive: 7.37%
20,OC(COCc1ccco1)CN1CCN(C(c2ccccc2)c2ccccc2)CC1 (centres undefined),inconclusive: 35.5%
21,COc1ccc(C2C(C(=O)NCc3ccco3)CCC(=O)N2c2ccc(OC)cc2)cc1 (centres undefined),inactive: -1.81%
22,CCCNc1nc(Cl)nc(NCc2cccnc2)n1,inconclusive: 59.4%
23,Cc1ccc(C(=O)C2CCN(CC(=O)Nc3ccc(N(C)C)cc3)CC2)cc1,inconclusive: 35%
24,O=c1oc2ccccc2c2oc3cc(O)c(O)cc3c12,inconclusive: 70.3%

row,SMILES,inhibition
1,CCN1CCN(C(=S)c2ccc(O)cc2)CC1,inconclusive: 35.9%
2,CC1=Nc2cccc3cccc(c23)N1C,inconclusive: 54.6%
3,CC(C)(C)c1cc(Cl)ccc1OCCn1ccnc1,inconclusive: 35.8%
4,COc1cc(CN2CCC(C(=O)N3CCN(c4ccccc4F)CC3)CC2)cc(OC)c1OC,inconclusive: 34.5%
5,CCOC(=O)N1CCC(=NNC(=O)NC2CCCCC2)CC1,inactive: -0.13%
6,Oc1ccc(N=Cc2ccc(-c3cccs3)s2)cc1,inconclusive: 49.3%
7,CC1(c2ccc(Cl)cc2Cl)OCC(Cn2ccnc2)O1 (centres undefined),inconclusive: 35.1%
8,Cc1cc(-c2ccccc2)nc(N/N=C/c2ccccc2)n1,inactive: 4.11%
9,Oc1ccc(/C=N/N=C/c2ccc(O)c(O)c2)cc1O,inconclusive: 109%
10,COc1ccc(O)cc1,inconclusive: 57.1%
11,COc1cc(-c2cc(C(=O)Nc3ccc(O)cc3)c3ccccc3n2)cc(OC)c1OC,inconclusive: 33.1%
12,C=CCOC(=O)Nc1c(C(=O)OC)[nH]c2ccccc12,inactive: 13.1%
13,CCn1cnc2cc(NCc3ccc(Cl)cc3)ccc21,inactive: 20%
14,CC(=O)NC(CC(=O)NCCc1ccccc1)c1ccccc1 (centres undefined),inactive: 5.84%
15,CCc1c(C)c(C#N)c2[nH]c3ccccc3n2c1=S,inconclusive: 100%
16,Cc1cccc(-c2nc(C#N)c(N3CCC(C)CC3)o2)c1,inactive: -3.59%
17,Oc1ccc(-c2nc(-c3ccc(O)c(O)c3)cs2)cc1,inconclusive: 66.1%
18,CCOc1cc(NC2CS(=O)(=O)CC2O)c(OCC)cc1NC(=O)c1ccccc1 (centres undefined),inconclusive: 74.8%
19,COc1ccc(Cl)cc1NCCC(O)c1ccc(F)cc1 (centres undefined),inactive: 10.5%
20,COc1cc(/C=N/Nc2ccnc(=O)[nH]2)ccc1O,inconclusive: 80.2%
21,O=C(CN1CCN(c2ccc(O)cc2)CC1)NC(c1ccccc1)c1ccccc1,inconclusive: 32.5%
22,Oc1cccc(/C=N/NC(=S)NCCN2CCOCC2)c1O,inconclusive: 64.3%
23,COC(=O)/C(C#N)=C1/C=Cc2ccccc2N1,inactive: -5.37%
24,COc1cc2[nH]c(=S)nc(NCCCOC(C)C)c2cc1OC,inconclusive: 32.9%

row,SMILES,inhibition
1,CC(C)Oc1ccc(OCCNC2CCCC2)cc1,inconclusive: 34%
2,CS/C(=N\S(=O)(=O)c1cccs1)NC(=O)CSc1nc2ccccc2s1,inconclusive: 70.6%
3,COc1cc(-c2nc3ccccc3nc2-c2ccc(O)c(OC)c2)ccc1O,inconclusive: 34.9%
4,CCCCNC(=O)CNC(=S)N(Cc1cc(OC)c(OC)c(OC)c1)C1CCCC1,inactive: 5.07%
5,O=C(CNC(=O)c1ccco1)NCc1ccc2c(c1)OCO2,inactive: 3.26%
6,CN(C1CCS(=O)(=O)C1)S(=O)(=O)c1ccc(N2CCCC2=O)cc1 (centres undefined),inactive: 14.4%
7,CCOc1ccc2[nH]c3c(N4CCN(c5ccccn5)CC4)ncnc3c2c1,inconclusive: 33%
8,O=C(COc1ccccc1[N+](=O)[O-])N/N=C/c1ccncc1,inactive: 3.99%
9,O=C(O)c1ccccc1C(=O)Nc1ccccc1,inactive: -1.51%
10,O=C(NCc1ccco1)c1ccc(COc2ccc(Cl)cc2)cc1,inactive: -1.23%
11,CCC(/C=C1\Sc2ccc(OC)cc2N1CCO)=C\c1sc2ccc(OC)cc2[n+]1CCO,inconclusive: 78.9%
12,CC(C(=O)Nc1ccc(S(=O)(=O)N2CCOCC2)cc1)N1CCN(c2ccccn2)CC1 (centres undefined),inactive: -2.88%
13,Cc1ccc2c(c1C)NC(C(=O)O)C1CC=CC21 (centres undefined),inconclusive: 58.5%
14,CCCOc1ccc(/C=N/NC(=O)C(C)Sc2ccccn2)cc1OCC (centres undefined),inactive: 9.98%
15,Cc1ccc(C(C)C)c(OCCn2ccnc2C)c1,inconclusive: 33.6%
16,COc1ccc(N2CCN(C(=O)c3ccc(NC(=O)C4=CSCCO4)cc3)CC2)cc1,inconclusive: 32.9%
17,COc1cccc(C(=O)N/N=C(\C)CC(=O)Nc2ccc(N(C)C)cc2)c1,inconclusive: 41.4%
18,C/C=C/c1ccc(OCCCNC)c(OC)c1,inconclusive: 33.1%
19,COc1ccccc1NC(=O)Nc1nc(CC(=O)Nc2ccc(N(C)C)cc2)cs1,inconclusive: 35.8%
20,COc1cc(CNc2ccc3[nH]c(=O)[nH]c3c2)cc(Br)c1OCC(=O)NC(C)(C)C,inconclusive: 39%
21,O=C(c1ccc(=O)oc1)N1CCCc2ccccc21,inconclusive: 67.2%
22,CCN(CC)c1ccc(NC(=O)Nc2cccc(C(C)=O)c2)cc1,inconclusive: 36.4%
23,Cc1ccc(C(=O)Sc2cccccc2=O)cc1,inconclusive: 61.7%
24,O=C(c1ccco1)N1CCCC(Nc2ccc3c(c2)OCCO3)C1 (centres undefined),inconclusive: 50.2%

row,SMILES,inhibition
1,Cc1oc2c(O)c(O)ccc2c(=O)c1-c1ccccc1,inconclusive: 33.3%
2,CCCc1ccc2c(N)c(C#N)sc2n1,inactive: 1.65%
3,CNC(=O)CSc1nc2sccc2c(=O)n1-c1ccccc1,inactive: 4.24%
4,O=C(CN1CCN(S(=O)(=O)c2ccc(Br)cc2)CC1)Nc1ccc(F)cc1F,inactive: 7.71%
5,CC(=O)Oc1cc(O)c2c(=O)c(OC(C)=O)c(-c3ccc(OC(C)=O)c(OC(C)=O)c3)oc2c1,inconclusive: 40.5%
6,C#CCOCCOCCOCCNc1nc(N2CCN(C(=O)CCCCCCCCCCNC(=O)Cn3cc(CCCCCN)nn3)CC2)nc(N2CCN(C(=O)CCCCCCCCCCNC(=O)[C@@H]([C@H](C)O)n3cc(C)nn3)CC2)n1,inconclusive: 63.7%
7,COc1cc(/C=C2/NC(=O)N(Cc3ccccc3F)C2=O)ccc1O,inconclusive: 79.6%
8,O=C(CCN1CCN(c2ccccc2)CC1)NNC(=O)c1ccccc1,inactive: 10.2%
9,Cc1cccc(NS(=O)(=O)c2cccc(C(=O)N3CCCCCCC3)c2)c1,inactive: 7.59%
10,O=C(CCCN1C(=O)/C(=C/c2ccco2)SC1=S)Nc1cccc(C(=O)O)c1,inconclusive: 35.6%
11,O=S(=O)(CCc1nc2ccccc2o1)c1ccc(Cl)c(Cl)c1,inconclusive: 34.7%
12,CCOc1ccc(NC(=O)CN2CCN(CC(=O)Nc3ccc(N(C)C)cc3)CC2)cc1,inconclusive: 34.1%
13,COc1ccccc1N1CCN(C2CCN(C(=O)c3cc(OC)c(OC)c(OC)c3)CC2)CC1,inconclusive: 32.2%
14,Cc1ccc(N2CSC3=C(C#N)C(c4cccs4)CC(=O)N3C2)cc1 (centres undefined),inconclusive: 32.4%
15,CC1NC(=O)c2cc3ccccc3cc2-n2c1nc1cc(Cl)ccc1c2=O (centres undefined),inactive: 9.82%
16,O=C(COC(=O)c1ccc(O)cc1)Nc1cccc(S(=O)(=O)N2CCCCC2)c1,inactive: 5.81%
17,C=CCn1c(SCC(=O)c2ccc(O)c(O)c2)nnc1-c1cccc(C)c1,inconclusive: 35.4%
18,COc1ccc2c(c1OC)C(=O)N(c1ccc(O)cc1)C2,inconclusive: 77.1%
19,COc1cc(N(C)C)ccc1C=c1c2ccccc2n2c1cc(-c1ccccc1)[n+]2C,inconclusive: 109%
20,COc1cc2c(cc1OC)-c1cc(Nc3ccc(N(C)C)cc3)nc(=O)n1CC2,inconclusive: 70%
21,CC(C)C1Cc2c(sc3c2c(=O)n(-c2ccccc2)c2n[nH]c(=S)n32)CO1 (centres undefined),inconclusive: 68.5%
22,CN(C)c1ccc(C(=O)c2ccc(N(C)C)c(N)c2)cc1N,inconclusive: 61.8%
